According to PubChem BioAssay AID493208 (National Center for Advancing Translational Sciences (NCATS), 2011):
Hit rate of the full screen: of about 44,000 compounds, about 340 (0.77%) were called active. Not shown: some 5% with an inconclusive outcome. The call rests on the fitted dose curve; in most records, active means well fitted inhibition curve with a large enough effect; inconclusive means small, poorly fitted or top-dose-only effect; inactive means flat fitted curve, though single readings scatter. The list shows a part of the results.

experiment: Acumen qHTS Assay for Inhibitors of the mTORC1 Signaling Pathway in MEF (Tsc2-/-, p53-/-) Cells: Sytravon; settings: phospho-rpS6 immunofluorescence/PI, 24 h; series mostly up to 38.3 µM; activity change, negative = inhibition: at the top concentration; further: nearly all actives have a fitted effect of over 50% in size
Method in brief: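 Read-out: phospho-S6 Alexa-488 intensity over PI intensity per well, scored as % active cells using thresholds from rapamycin (7.5 nM) and DMSO controls. Tsc2-/-, p53-/- MEFs exposed to compound for 24 h; PI cell count recorded as viability.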

Compound	activity change, negative = inhibition
O=C(c1ccc(Cl)cc1)N1CCCCC1CCN1CCOCC1 (configuration not stated)	inactive: -5.04%
Cc1ccc(C)c(N2CCN(C(=O)c3cc4c(=O)n(Cc5cccnc5)ccc4nc3C)CC2)c1	inactive: 0%
Cc1cccc(CSc2nc3cccnc3n2Cc2ccc(C(=O)NCc3cccs3)cc2)c1	inactive: 0.701%
Cc1ccc(NC(=O)c2cc3c(Cl)nc4ccc(C)cc4c3s2)c(Cl)c1	inactive: 1.53%
COc1ccc(NC(=O)CSc2nc3ccccc3n2CC(=O)N2CCCC(C)C2)cc1 (configuration not stated)	inactive: 0%
Cc1cc(C)n(-c2nc3cc(Cl)c(Cl)cc3nc2Nc2ccc(F)cc2C)n1	inactive: 4.47%
CCn1c(=O)c2cc(C(=O)Nc3cc(C)c(Cl)cc3OC)sc2c2ccccc21	inactive: -1%
CC(=O)N(Cc1cccnc1)c1nc2c(C)cc(C)cc2s1	inactive: -0.355%
CCOc1ccccc1N1CC(c2nc3ccccc3n2CCOc2ccc(OC)cc2)CC1=O (configuration not stated)	inactive: -11.5%
COc1ccc(CNC(=O)c2cc(-c3cccs3)nc3ccccc23)c(OC)c1	inactive: -0.0981%
CCOC(=O)c1sc(NC(=O)c2nc3ncccn3n2)c(C(=O)OC(C)C)c1C	inactive: -5.66%
Cc1ccc(NS(=O)(=O)c2ccc3[nH]c4c(c3c2)CCCC4)c(C)c1	inactive: -0.34%
CC1CCc2c(sc3nnn(Cc4ccccc4)c(=O)c23)C1 (configuration not stated)	inactive: -16.7%
Cc1ccc(-c2nc3ccccn3c2Nc2c(C)cccc2C)o1	inactive: 14%
CCOc1ccc(NC(=O)Cn2cc(C(=O)c3ccccc3)c(=O)c3cc(OC)ccc32)cc1	inactive: 1.45%
COC(=O)c1cc(NC(=O)CCc2c(C)nc3nc(C)nn3c2C)cc(C(=O)OC)c1	inactive: -0.176%
O=C(Cc1ccc(F)cc1)NCCc1csc2nc(-c3ccc(Cl)cc3)nn12	inactive: 5.12%
CCCCn1c(SCc2ccccc2C#N)nc2c(sc3ccccc32)c1=O	inactive: -0.841%
CC1=C(C(=O)Nc2ccccc2C)C(c2ccc[nH]2)n2ncnc2N1 (configuration not stated)	inactive: 2.58%
Cc1ccc(-n2ncc3c(=O)n(Cc4cccc(C(F)(F)F)c4)cnc32)cc1C	inactive: -6.16%
CCOC(=O)Cn1c(=O)cc(C)c2c(C)nn(-c3cccc(F)c3)c21	inactive: -9.25%
Cc1ccc2c(c1)-c1onc(C(=O)N(C)c3ccc(F)cc3)c1CO2	inactive: 1.22%
Cc1cccc(CC(=O)Nc2cccc(-c3cn4cccnc4n3)c2)c1	inactive: -7.73%
CCc1ccc(S(=O)(=O)Nc2ccc3oc(C)c(C(=O)OCCOC)c3c2)cc1	inactive: -1.29%
Cc1cccc(NC(=O)c2cc3c(C)nn(-c4ccccc4)c3s2)c1	inactive: -14.1%

Compound	activity change, negative = inhibition
COc1ccc(CNC(=O)C2CCN(S(=O)(=O)Cc3ccccc3)CC2)cc1	inactive: -1.04%
O=C(NCc1ccc2c(c1)CCN2C(=O)c1ccncc1)c1cccc(F)c1	inactive: 1.84%
CCOC(=O)c1[nH]c(C)c(C(=O)NCc2ccccc2Cl)c1C	inactive: -6.76%
O=C(CCc1nnc2n(Cc3ccccc3Cl)c(=O)c3ccccc3n12)Nc1ccccc1	inactive: 0.468%
CCCCN(c1ccccc1)S(=O)(=O)c1cc2c3c(c1)C(C)C(=O)N3CCC2 (configuration not stated)	inactive: 1.06%
COc1ccc(NC(=O)c2ccc(-c3nc(CSc4ccccc4)c(C)o3)cc2)c(OC)c1	inactive: -0.314%
CCOC(=O)C1CCCN(S(=O)(=O)c2cc(Br)cc3c2N(C(=O)CC)CC3)C1 (configuration not stated)	inactive: -2.43%
Cc1ccc(COC(=O)c2ccc(-c3nnn(Cc4ccc(C)cc4)n3)cc2)cc1	inactive: -1.64%
CCN(CCCNC(=O)CN1N=C(c2ccc(C)cc2)CCC1=O)c1ccccc1	inactive: -13.1%
O=c1cc(-c2ccccc2)nc(SCc2nc(-c3cccc(C(F)(F)F)c3)no2)[nH]1	inactive: 0%
Cc1nn(-c2ccc(N3CCCCC3)nn2)c(C)c1CCC(=O)Nc1cccc(F)c1	inactive: -8.6%
Cc1ccn2c(=O)c(NC(=O)c3cccc([N+](=O)[O-])c3C)c(C)nc2c1	inactive: 0%
CC(=O)C(Sc1nc(-c2ccccc2Cl)nc2c1c(=O)n(C)c(=O)n2C)C(=O)N(C)C (configuration not stated)	inactive: 3.47%
CCCCN(CC)C(=O)Cn1cc2c(n1)-c1c(oc(C(=O)N3CCCC3)c1C)CC2	inactive: 3.66%
COc1cccc(C(=O)c2cn(CC(=O)Nc3ccc4c(c3)OCCO4)c3nc(C)ccc3c2=O)c1	inactive: 0%
Cc1ccc(NC(=O)NCc2c(-n3cccc3)sc3c2CCCC3)c(Cl)c1	inactive: 0%
Cc1ccc(CNC(=O)CCCn2nc(C)n3c(cc4sccc43)c2=O)cc1	inactive: -3.26%
CCC(=O)N1CCc2cc(S(=O)(=O)NC(CC(C)C)C(=O)NCc3cccc(OC)c3)ccc21 (configuration not stated)	inactive: 0.91%
Cc1cccc(C)c1NC(=O)c1cc2sccc2n1Cc1ccc(F)cc1	inactive: -12.9%
CCN(Cc1ccccc1)S(=O)(=O)c1ccc(F)c(C(=O)Nc2ccc(C(C)C)cc2)c1	inactive: -3.27%
COc1cc(NC(=O)C2CCN(S(=O)(=O)c3c(C)noc3/C=C/c3c(C)cc(C)cc3C)CC2)cc(OC)c1	inactive: -1.68%
COc1ccc(OC)c(CNc2ncc(-c3ccc(Cl)cc3)n2C)c1	inactive: -9.66%
CCOC(=O)c1cccc(NC(=O)NC2COc3ccccc3C2)c1 (configuration not stated)	inactive: 3.1%
Cc1ccc(CNC(=O)c2cn(C)c3ccc(S(=O)(=O)N4CCC(C)CC4)cc3c2=O)cc1	inactive: -4.35%
O=C(NCCCc1ccccc1)c1ccc2c(c1)sc1nc(-c3ccc(F)cc3)cn12	inactive: -11.1%

Compound	activity change, negative = inhibition
Cc1ccccc1CN1C(=O)c2ccccc2Sc2ccc(C(=O)NCCCN3CCOCC3)cc21	inactive: -13.2%
CCOc1ccc(CC(=O)NCc2ccc3c(c2)CCN3C(=O)c2ccc(F)cc2)cc1OCC	inactive: 2%
Cc1ccc(Sc2c(C)nn(-c3ccccc3)c2OC(=O)CC(C)C)cc1	inactive: -4.83%
CC(=O)c1ccc(S(=O)(=O)Nc2cccc(-c3ccc(N4CCCC4)nn3)c2)cc1	inactive: -0.403%
O=C(NCCc1ccc(Cl)cc1)c1ccc2c(c1)N(Cc1ccccc1)C(=O)CS2	inactive: 9.5%
Cc1ccc(NC(=O)c2sc3nc[nH]c(=O)c3c2C)cc1C	inactive: -6.56%
Cc1ccc(NC(=O)CN2C(=O)c3ccccc3Sc3ncccc32)c(C)c1	inactive: -11.7%
CCn1c(SCC(=O)Nc2cc(Cl)ccc2OC)nc2c([nH]c3ccccc32)c1=O	inactive: 0.124%
CC(=O)c1ccc(NC(=O)c2nn(C)c3c2COc2ccccc2-3)cc1	inactive: 0.45%
CCOc1ccccc1NC(=O)N1CCC(N2CCN(Cc3ccccc3)C(=O)C2=O)CC1	inactive: -0.696%
CCOC(=O)c1c(NC(=O)c2cc(-c3ccc(Br)cc3)on2)sc(C)c1C	inactive: -0.0733%
CCc1cc2c(-c3ccccc3)cc(=O)oc2c2c1OCN(Cc1ccc(C)cc1)C2	inactive: -5.69%
CC(Oc1ccccc1F)C(=O)N1CCC(c2nc3ccccc3o2)CC1 (configuration not stated)	inactive: -10.9%
O=c1c2ccccc2nc(-c2ccc(Cl)cc2)n1CCCCOc1ccc(F)cc1	inactive: -1.84%
COC(=O)c1ccc(NC(=O)CCOc2ccccc2)cc1	inactive: -1.41%
Cc1ccc(Cn2c(Cc3ccccc3)nc3ccccc32)cc1	inactive: 1.72%
CCOc1ccc(CN2C(=O)c3ccccc3Sc3ccc(C(=O)NC4CCC(C)CC4)cc32)cc1 (configuration not stated)	inactive: 5.53%
CCOC(=O)c1ccccc1NC(=O)CCc1c(C)nc2c(c1C)c(=O)n(C)c(=O)n2C	inactive: 0.565%
Cc1ccc(N(CC(=O)NCc2ccc(OC(C)C)cc2)S(=O)(=O)N(C)C)cc1	inactive: -1.11%
COc1ccc(CNC(=O)CCS(=O)(=O)c2cc3c4c(c2)CCN4C(=O)CC3)cc1	inactive: 3.16%
COC(=O)c1ccc(NC(=O)c2cc3cc4ccc(OC)c(Cl)c4nc3s2)cc1	inactive: -10.1%
Cn1cc(C(=O)N2CCN(c3ccccc3)CC2)c(=O)c2cc(S(=O)(=O)N3CCCC3)ccc21	inactive: 0.634%
O=C(NC1CC(=O)N(c2ccc(F)cc2)C1)C(c1ccccc1)c1ccccc1 (configuration not stated)	inactive: -1.67%
COc1ccc(-c2noc(CSc3nnc(-c4ccncc4)n3-c3ccc(OC)cc3)n2)cc1	inactive: -3.01%
Cc1cccc(NC(=O)Cn2c(=O)oc3cc(S(=O)(=O)N4CCCCCC4)ccc32)c1	inactive: 1.14%

Compound	activity change, negative = inhibition
COCCNC(=O)c1ccc(NC(=O)N2CCCCc3ccccc32)cc1	inactive: -1.85%
CCOc1ccc(CNC(=O)CN2C(=O)CSc3c2c(C)nn3-c2ccccc2)cc1	inactive: 0.455%
O=C(Nc1c(O)c2ccccc2oc1=O)c1ccccc1Cl	inactive: 1.14%
Cc1ccc(CSc2nc3cccnc3n2Cc2nc(-c3ccccc3F)oc2C)cc1	inactive: -23.7%
COc1ccc(NC(=O)C(=O)NCCc2csc3nc(-c4ccccc4C)nn23)cc1	inactive: -0.185%
CCOc1ccc(-n2nc3ccc(NC(=O)COc4ccccc4C)cc3n2)cc1	inactive: -11.6%
COc1ccc(S(=O)(=O)N(CCc2ccccc2)CC(=O)NCc2ccc(C)cc2)cc1	inactive: 11.6%
COC(=O)c1ccccc1NC(=O)CSc1c2c(nc3ccc(Cl)cc13)CCCC2	inactive: -0.141%
Cc1cc(C)c(S(=O)(=O)Nc2ccc(-c3ccc(N4CCCCC4)nn3)cc2)cc1C	inactive: 2.02%
COc1cccc(CNC(=O)C2CCCN(c3nnc(-n4c(C)ccc4C)s3)C2)c1 (configuration not stated)	inactive: -2.03%
O=C(NCC(c1cccnc1)N1CCN(Cc2ccccc2)CC1)C(=O)Nc1ccc(F)cc1 (configuration not stated)	inactive: 6.03%
CC(C)c1ccc(NC(=O)CN(C)S(=O)(=O)c2ccc3c(c2)n(C)c(=O)c(=O)n3C)cc1	inactive: -11.3%
CCn1cnc2cc(NCc3ccc(N(C)C)cc3)ccc21	inactive: -2.37%
CCC1CCCCN1C(=O)CSc1nc(-c2ccc(OC)cc2)cc(C(F)(F)F)n1 (configuration not stated)	inactive: -5.55%
CCc1ccc(CNC(=O)c2cnc3sc(N4CCCCCC4)nn3c2=O)cc1	inactive: -19.5%
CCOc1ccc(C(=O)Nc2ccc3nc(SCC(=O)N4CCCC4)sc3c2)cc1	inactive: 2.81%
Cc1ccc(SCC(=O)Nc2ccc3oc(-c4ccc(F)cc4)nc3c2)cc1	inactive: -7.3%
COc1ccc(C(=O)NCc2nnc(SCC(=O)Nc3ccc(C)cc3)n2-c2ccccc2)cc1	inactive: -3.87%
CCc1ccc(CNC(=O)c2ccc(NC(=O)N3CCSc4ncccc43)cc2)cc1	inactive: -1.92%
CCc1nc2nc(C)cc(Nc3cc(Cl)ccc3OC)n2n1	inactive: -1.01%
Cc1ccc(S(=O)(=O)N2CCC(c3nnc(-c4cccc(C)c4)o3)CC2)cc1	inactive: -2.43%
CCOc1ccc(CNC(=O)CCc2c(C)nn(-c3ccc(N4CCOCC4)nn3)c2C)cc1	inactive: -13.2%
